Reference: PubChem BioAssay AID488969 (Vanderbilt High Throughput Screening Facility, 2010)
The full ranking holds about 110,000 compounds; the median of “z-score” is about -0.1, and the highest 2% start at about 2. The list shows a part of the results. The source made the active and inactive calls.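 The calls were made as follows: active = z-score in the third read window above 3 or below -3; inactive = the rest.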

What follows are molecules tested against Metabotropic glutamate receptor 8 (Rattus norvegicus) (UniProt P70579) (assay: rat mGluR8 modulators via GIRK flux, primary screen, cell-based, thallium flux, HTS (AID 488969)). Conditions: HEK293 rat mGluR8, GIRK (G protein-gated inwardly rectifying potassium channel) thallium flux, FluoZin2; at 10 µM; stronger effect = higher value; submaximal glutamate (EC20) added with thallium.
Sequence of UniProt P70579 (P70579 whole entry, looked up): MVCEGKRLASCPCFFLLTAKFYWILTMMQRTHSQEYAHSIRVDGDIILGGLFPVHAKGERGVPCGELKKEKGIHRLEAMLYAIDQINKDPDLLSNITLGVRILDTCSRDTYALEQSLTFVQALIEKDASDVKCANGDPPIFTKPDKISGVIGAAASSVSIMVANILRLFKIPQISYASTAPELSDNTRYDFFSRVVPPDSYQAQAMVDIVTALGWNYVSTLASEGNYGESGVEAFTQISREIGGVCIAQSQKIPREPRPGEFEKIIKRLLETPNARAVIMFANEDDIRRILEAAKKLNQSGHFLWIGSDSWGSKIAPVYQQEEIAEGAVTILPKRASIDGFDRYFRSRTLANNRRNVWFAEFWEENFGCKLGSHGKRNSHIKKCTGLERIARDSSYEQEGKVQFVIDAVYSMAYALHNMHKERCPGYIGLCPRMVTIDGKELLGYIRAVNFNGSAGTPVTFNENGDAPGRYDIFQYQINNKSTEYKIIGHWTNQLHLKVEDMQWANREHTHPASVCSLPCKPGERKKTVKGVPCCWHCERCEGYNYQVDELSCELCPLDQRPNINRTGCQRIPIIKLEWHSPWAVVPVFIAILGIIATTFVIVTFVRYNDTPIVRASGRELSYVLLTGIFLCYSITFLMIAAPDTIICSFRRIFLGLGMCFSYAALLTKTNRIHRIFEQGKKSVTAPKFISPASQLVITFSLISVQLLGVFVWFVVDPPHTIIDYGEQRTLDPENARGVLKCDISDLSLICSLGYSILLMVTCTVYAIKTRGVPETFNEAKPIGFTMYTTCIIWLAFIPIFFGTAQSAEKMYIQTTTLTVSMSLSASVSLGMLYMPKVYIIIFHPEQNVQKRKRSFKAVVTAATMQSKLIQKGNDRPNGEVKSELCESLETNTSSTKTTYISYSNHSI

Row | SMILES | z-score
1 | C/C(=C/C=N/Nc1nc(N2CCCCC2)nc(N2CCCCC2)n1)c1ccccc1 | -0.421
2 | COc1ccc(C(C(=O)NC2CCCC2)N(CCN(C)C)C(=O)c2snc(C(N)=O)c2N)cc1 (configuration not stated) | -0.226
3 | COc1ccc(/C=C(\C#N)C(=O)NCc2cccs2)cc1OC | -0.295
4 | Cc1nc2sc(C(c3cccs3)N3CCOCC3)c(O)n2n1 (configuration not stated) | -0.505
5 | Cn1nc(C(F)(F)F)c(C(=O)Nc2ccc(F)cc2F)c1Sc1ccc(C(F)(F)F)cc1 | 0.101
6 | CC1CCc2c(C(=O)Oc3cccc(-n4cnnn4)c3)csc2C1 (configuration not stated) | -0.416
7 | CCOC(=O)Cn1cnc2sc3c(c2c1=O)CCC3 | 0.161
8 | CCc1cccc(NC(=O)CCc2nc(-c3cccs3)no2)c1 | 0.229
9 | Cc1ccc(S(=O)(=O)N2CC(=O)Nc3ccccc32)cc1C | 0.454
10 | COc1ccc(C)cc1-n1c(SCC(=O)Nc2cc(C)on2)nc2sc(C)c(C)c2c1=O | 0.423
11 | O=S(=O)(NCc1ccncc1)c1ccccc1 | -0.594
12 | CC(C)C1=NN(C(=O)c2cccnc2)C(O)(C(F)(F)F)C1 (configuration not stated) | -0.418
13 | Nc1ncnc2c1ncn2C1CCC(CO)C(O)C1 (configuration not stated) | -0.256
14 | CCOC(=O)CN(C(=O)CSc1nnc(C)n1-c1ccccc1)c1cccc([N+](=O)[O-])c1 | 0.245
15 | COc1ccccc1NC(=O)COc1ccc(C(F)(F)F)cc1[N+](=O)[O-] | active: 4.19
16 | O=S(=O)(NCCCc1ccccc1)c1ccc(Cl)cc1 | -0.252
17 | Brc1ccc(-c2nc3ncccn3c2Nc2ccc3c(c2)OCCO3)o1 | -0.598
18 | CCc1cc[n+](/C(C(=S)Nc2cccc(C)c2)=C(/[O-])c2ccc(C)c([N+](=O)[O-])c2)cc1 | -0.334
19 | C=CCN=C1NN=C(c2cc(C)n(CCOC)c2C)CS1 | 0.0624
20 | Cc1cc(CN2CCCCC2)oc1C(=O)O | -0.285
21 | Cc1ccc(NC(=O)C2CC(=O)N(c3ccc4c5c(cccc35)CC4)C2)cc1 (configuration not stated) | -0.138
22 | COc1cc(/C=C2\SC(=O)N(CCNC(=O)c3cnc(C)cn3)C2=O)cc(OC)c1OC | -0.521

Row | SMILES | z-score
23 | COc1ccc(C(=O)NC(=S)NCc2cccnc2)cc1[N+](=O)[O-] | -0.234
24 | c1ccc(C[n+]2csc3ccccc32)cc1 | -0.0142
25 | COc1cc(C(=O)NCc2nnc(SCC(=O)NCc3ccccc3)o2)cc(OC)c1OC | 1.55
26 | Cc1ccc(C)c(NC(=O)CN(C)C(=O)Cc2ccccc2)c1 | -0.403
27 | CCOC(=O)N1CCC(NC(=O)c2ccc(OC)c(CN3CC(=O)N4CCCC4C3=O)c2)CC1 (configuration not stated) | -0.0166
28 | O=C(Cn1nnc(-c2cccc(C(F)(F)F)c2)n1)N1CCCCCC1 | -1.55
29 | N/C(=N\OC(=O)COc1ccc(Br)cc1Cl)c1ccccn1 | -0.0604
30 | Cn1c(N/N=C\c2cccc(O)c2)cc(=O)n(C)c1=O | 0.0652
31 | CCN(CC)c1nc(Oc2ccc(=O)[nH]n2)nc(N2CCOCC2)n1 | -0.346
32 | COCCOC(=O)C1=C(C)N(c2ccccc2)C(=O)NC1c1cccc([N+](=O)[O-])c1 (configuration not stated) | -0.0918
33 | Cc1c(N=C2SCC(=O)N2c2c(C)n(C)n(-c3ccccc3)c2=O)c(=O)n(-c2ccccc2)n1C | -0.472
34 | Cc1noc(C)c1C(=O)OCC(=O)Nc1ccccc1C(=O)NC(C)c1ccccc1 (configuration not stated) | -1.4
35 | CCCC1OC23CCCCC2C(C#N)(C#N)C1(C#N)C(=N)O3 (configuration not stated) | -0.455
36 | CN1CCN(C(=O)c2cn(C)c3ccc(S(=O)(=O)N(C)C4CCCCC4)cc3c2=O)CC1 | 0.0356
37 | COC(=O)C1(c2ccccc2)NC(c2cccs2)C2C(=O)N(C)C(=O)C21 (configuration not stated) | -0.191
38 | O=C(c1ccc(F)cc1)N1CCN(c2cc(=O)[nH]nc2-c2ccccc2)CC1 | 0.0606
39 | Cc1cc(=O)[nH]c(SCC(=O)Nc2ccc(S(=O)(=O)N3CCCCC3)cc2)n1 | -1.07
40 | COc1cccc(Cn2cnc3c(NS(=O)(=O)c4cc(Cl)ccc4Cl)c(C)c(C)cc32)c1 | 0.261
41 | CC(C)(C)OC(=O)NCc1nc(N)n[nH]1 | 0.58
42 | Cc1cc2ccccc2c(=O)n1CC(=O)NCC1COc2ccccc2O1 (configuration not stated) | 0.0188
43 | Cc1[nH]nc2c1C(c1ccc(OC(=O)c3ccco3)cc1)C(C#N)=C(N)O2 (configuration not stated) | 0.251
44 | CCCCSc1cnn(-c2ccccc2)c(=O)c1SCCCC | -0.108

Row | SMILES | z-score
45 | C/C(=N\Nc1ccc([N+](=O)[O-])cc1[N+](=O)[O-])c1ccc(-n2nncc2C(C)(C)C)cc1 | -2.37
46 | CC(=O)Oc1ccc(C(=O)[C@H]2[C@H]3C(=O)N(c4ccc(C)cc4)C(=O)[C@H]3[C@@H]3C=CC=NN32)cc1 | -0.635
47 | O=C(OCC(=O)N1CCOCC1)C(c1ccccc1)c1ccccc1 | -0.421
48 | CCOCCCNC(=O)N1CCOCC1 | -0.0637
49 | CCS(=O)(=O)N1CCCC(C(=O)NC2CCCCC2)C1 (configuration not stated) | 0.44
50 | Cc1ccc(Sc2ccc(N)cc2C#N)cc1 | -0.101
51 | Cc1cc(Nc2ccccc2)nc(NCc2ccccc2)n1 | 2.34
52 | CC(NC(=O)CCl)c1ccc(Cl)c(Cl)c1 (configuration not stated) | -0.0972
53 | O=C(O)c1cccc(NCc2ccncc2)c1 | 0.664
54 | Oc1ccc(-c2onc3ccc(Cl)cc23)cc1 | -0.116
55 | CCOc1ccccc1NC(=O)Cn1c(=O)n(CCC(=O)NC2CCCC2)c(=O)c2ccccc21 | -0.0443
56 | CC(C(=O)Nc1ccc2c(c1)OCCO2)N1CCN(C(=O)c2ccco2)CC1 (configuration not stated) | 0.212
57 | COc1ccc(N=Cc2cccc(C)c2O)cc1Cl | -0.209
58 | O=C(Nc1ccccc1)c1cc([N+](=O)[O-])ccc1NC1CCCCC1 | 1.3
59 | O=C(CNC(=O)c1ccc(Cl)cc1Cl)NCC(=O)Nc1ccccc1N1CCOCC1 | -0.0598
60 | Cc1ccc(C2C(=O)N(C3CCCC3)CC(=O)N2C2CCCCC2)cc1 (configuration not stated) | -0.426
61 | Cc1cccc(N2CCN(Cc3ccoc3)CC2)c1C | 0.264
62 | CCNc1nc(NCC)nc(OCCOC(C)=O)n1 | -0.296
63 | COc1ccccc1NC(=O)CN1CCN(C2c3ccccc3-c3ccccc32)CC1 | -0.222
64 | CCC(C)[C@H](NC(=O)N1CCN(C)CC1)C(=O)OC (some centres not stated) | -0.206
65 | COc1ccc(NC(=O)COC(=O)CCCc2c[nH]c3ccccc23)cc1OC | -0.22
66 | COC(=O)C1=CN(CC2CCCO2)C=C(C(=O)OC)C1c1cc(OC)c(OC)c(OC)c1 (configuration not stated) | -0.256

Row | SMILES | z-score
67 | Cc1ccc(S(=O)(=O)CCSc2nc(C)cc(C(F)(F)F)c2C#N)cc1 | 0.0567
68 | CCOC(=O)C1CCCN(C(=O)c2cn(CC)c3ccc(S(=O)(=O)N4CCCC4)cc3c2=O)C1 (configuration not stated) | 0.63
69 | CCOc1ccc(OCc2ccc(C(=O)N3CCc4ccccc4C3)o2)cc1 | -0.444
70 | CCOc1cc(NC(=S)Nc2cccc(OC)c2)c(OCC)cc1NC(=O)c1ccc(C)cc1 | -0.0972
71 | C=CCn1c(SCC(=O)NCC2CCCO2)nc2scc(-c3ccco3)c2c1=O (configuration not stated) | -0.148
72 | Cc1nc(CNS(=O)(=O)c2ccc3c(c2)OCCO3)cs1 | 0.138
73 | COc1ccc(/C=N/NC(=O)c2ccc(N(C)S(=O)(=O)c3ccccc3)cc2)cc1OC | 0.488
74 | Cc1ccc(S(=O)(=O)NC2(C(F)(F)F)C(=O)Nc3c2c(=O)[nH]c(=O)n3-c2ccccc2)cc1 (configuration not stated) | 0.198
75 | Cc1ccc(-c2nn(C)c(=O)c3ccccc23)cc1CNC(=O)c1ccco1 | -1.48
76 | NC1=NC(=O)CC(C(=O)NCCc2ccccc2)S1 (configuration not stated) | 0.323
77 | CCN(CC)CCn1c(NCc2ccco2)nc2ccccc21 | -0.0164
78 | CN(C)c1ccc(/C=C2\NC(=S)N(Cc3ccccc3)C2=O)cc1 | 0.888
79 | CC(C)(C)OC(=O)N1CCC(c2c(C(=O)O)cnn2-c2ccccc2Cl)CC1 | 0.0968
80 | CC(C)(C)SCCNC(=O)Nc1ccccc1 | 0.0127
81 | Clc1ccc(CNc2nc(N3CCOCC3)nc(N3CCOCC3)n2)cc1 | -0.553
82 | COC(=O)CC(NC(=O)c1ccco1)c1cccc2ccccc12 (configuration not stated) | -0.498
83 | Cn1c(=O)cc(OCCCC(=O)NCCCN2CCN(Cc3ccccc3)CC2)c2ccccc21 | -0.329
84 | CC(=O)Nc1ccc(SCC(=O)c2cc(C)n(C)c2C)cc1 | -0.0734
85 | CC(=O)c1ccc(NC(=S)N2C(C)CCCC2C)cc1 (configuration not stated) | -0.0872
86 | CCOC(=O)c1cc2occc2n1CC(=O)NC1CCC(C)CC1 (configuration not stated) | -0.797
87 | CN(C)S(=O)(=O)c1cccc(C(=O)NC2CCCc3ccccc32)c1 (configuration not stated) | -0.104
88 | Cc1ccc(Sc2c([N+](=O)[O-])ncn2C)cc1 | -0.0293

Row | SMILES | z-score
89 | Cc1nn(C)c(C)c1/C=C(\C#N)C(N)=O | -0.273
90 | COC(=O)c1ccccc1NC(=O)NCc1cccnc1 | 1.03
91 | NC(=O)COC(=O)c1ccc(Oc2ccccc2)cc1 | 0.0036
92 | O=C1C2CCCCC2C(=O)N1c1ccc(NC2CCCCC2)c([N+](=O)[O-])c1 (configuration not stated) | -0.205
93 | CCc1ccccc1NC(=O)CC1CS(=O)(=O)CC1CC(=O)Nc1ccccc1CC (configuration not stated) | -0.13
94 | O=C(O)c1cccc(N2CCCC2=O)c1 | -0.211
95 | O=C(Nc1cccc(-c2nnn(CC(=O)N3CCc4ccccc4C3)n2)c1)C1CCC1 | -0.621
96 | COc1cc(NC(=O)CN2CCN(c3ccccc3O)CC2)c(C)cc1[N+](=O)[O-] | -0.0254
97 | CCN1CCCC(NC(=O)c2cc([N+](=O)[O-])ccc2OC)C1 (configuration not stated) | -0.00139
98 | COc1ccc(-c2noc(CCC(=O)N3CCN(c4cc(C)ccc4C)CC3)n2)cc1 | -0.192
99 | O=C(NCCOc1nc(N2CCCCC2)nc(N2CCOCC2)n1)Nc1ccccc1 | -0.56
100 | O=C(Cc1ccccc1)NCCCN1CCN(CCCNC(=O)Cc2ccccc2)CC1 | 0.0812
101 | COc1ccc(CCNC(=O)c2ccc(CN3CCC(Cc4ccccc4)CC3)cc2)cc1OC | 0.37
102 | Nc1cc(CN2C(=O)c3ccccc3C2=O)cc(Cl)c1O | -0.0748
103 | COc1ccc(/C=N/OC/C(O)=C(\C#N)c2nc3ccccc3[nH]2)cc1OC | 0.06
104 | O=C1/C(=C/N(C(=O)c2ccco2)c2ccc(Cl)cc2)Sc2ccccc21 | -0.348
105 | COc1ccc(/C(O)=C2/C(=O)C(=O)N(CCCN(C)C)C2c2ccc(Cl)cc2)cc1OC (configuration not stated) | 0.00098
106 | COc1cccc(N2CCN(c3ncnc4c3cnn4-c3ccc(C)cc3C)CC2)c1 | 0.0229
107 | Cc1csc(NC(=O)c2cc(-c3ccccc3)nc3ccccc23)n1 | -0.426
